In all, about 48,000 compounds went through this assay and about 550 (1.1%) were called active. About 4% were inconclusive and are not listed. No stated cut-off is given here; in the data, active means potency below about 15 µM; inconclusive means mostly about 16 µM to 33 µM; inactive means weaker than that. Some of the results follow.
Potency means the concentration at half of the fitted maximal effect.

This assay deals with Lysosomal acid glucosylceramidase (Homo sapiens) (UniProt P04062). Kind of assay: Glucocerebrosidase.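 Further: the screen sought inhibitors.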 The note with it: purified enzyme, resorufin glucoside fluorescence (screen aimed at inhibitors), 20 min. The essentials: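 Wild-type enzyme at 0.2 nM final in 50mM citric acid/KH2PO4, 10mM sodium taurocholate, 0.01% tween-20, pH 5.9, with resorufin beta-D-glucopyranoside at 30 uM final. Compounds titrated, 20 min at RT, red fluorescence read; AC50 from titration.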
UniProt P04062, sequence (P04062 whole entry, looked up): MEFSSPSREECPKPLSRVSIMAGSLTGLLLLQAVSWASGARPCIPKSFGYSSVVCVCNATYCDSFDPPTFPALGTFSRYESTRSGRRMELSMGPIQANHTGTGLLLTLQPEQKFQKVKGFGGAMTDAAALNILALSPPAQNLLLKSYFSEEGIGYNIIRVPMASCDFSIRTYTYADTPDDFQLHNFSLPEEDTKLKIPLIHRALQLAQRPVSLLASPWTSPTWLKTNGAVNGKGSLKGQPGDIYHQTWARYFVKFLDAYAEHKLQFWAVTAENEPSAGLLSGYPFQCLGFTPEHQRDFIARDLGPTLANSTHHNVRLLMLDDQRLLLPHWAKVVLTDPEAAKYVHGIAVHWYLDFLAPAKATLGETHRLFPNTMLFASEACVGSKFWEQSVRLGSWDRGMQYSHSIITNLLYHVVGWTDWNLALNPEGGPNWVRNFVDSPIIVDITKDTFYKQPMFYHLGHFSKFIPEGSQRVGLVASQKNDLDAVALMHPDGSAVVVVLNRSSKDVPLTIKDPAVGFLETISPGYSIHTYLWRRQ
For the compound `CCOC(=O)C(Cc1ccccc1)NS(=O)(=O)c1ccc(NC(C)=O)cc1` (stereo unspecified), the Potency was inactive: > 76.9 µM. Take `CC1CCCN(S(=O)(=O)c2ccc(Br)s2)C1` (stereo unspecified): the Potency is inactive: > 76.9 µM. The result for `C=CCn1c(=O)c2c(C)c(C)sc2n2c(Nc3ccccc3)nnc12` reads inactive: > 76.9 µM. Under `CSc1nsc(SC)c1NC(=O)N1CCCC1` stands inactive: > 76.9 µM; under `CC(=O)c1ccc(NC(=O)CSCCO)cc1`, inactive: > 76.9 µM; under `COc1cccc(N(CC(=O)N2CCN(C)CC2)S(=O)(=O)c2ccccc2)c1`, inactive: > 76.9 µM. With `COc1ccccc1OCc1nnc(SCC(=O)N2CCCCC2)n1-c1ccccc1`, the Potency is inactive: > 76.9 µM.

`CCn1c(SCC(=O)Nc2nc3ccc(C)cc3s2)nc2c(c1=O)SC(C)C2` (stereo unspecified): the Potency is inactive: > 76.9 µM. Under `CCOCCOC(=O)C1=C(C)Nc2ccc(C)cc2S1` stands inactive: > 76.9 µM; under `COc1cccc(C(=O)/C=C/Nc2cc(C)ccc2O)c1`, inactive: > 76.9 µM.

In the case of `Oc1ccccc1C(=S)N1CCCCCC1`, the Potency was inactive: > 76.9 µM.

As for `CCOC(=O)CNC(=O)CSc1nnnn1-c1cc(C)ccc1C`, the Potency was inactive: > 76.9 µM. The result for `Cc1cc(C)nc(N2CCCC(C(=O)NCc3cccc(C(F)(F)F)c3)C2)n1` (stereo unspecified) reads inactive: > 76.9 µM; that for `COc1ccc(C(=O)CSc2nc(SC)ns2)cc1OC`, inactive: > 76.9 µM. Under `Cc1cc(OCC(=O)c2ccc(F)cc2)ccc1N1C(=O)CCC1=O` stands inactive: > 76.9 µM. The result for `Cc1ccc(-c2c3c(=O)n(C)c(=O)n(C)c3cn2-c2ccccc2O)cc1` reads inactive: > 76.9 µM; that for `O=C(C1CCCN(S(=O)(=O)Cc2ccccc2)C1)N1CCc2ccccc21` (stereo unspecified), inactive: > 76.9 µM.

Regarding `COc1cc2c(=O)nc3n(c2cc1OC)C(c1ccccc1)N=C(N)N3` (stereo unspecified), the Potency entry was “inactive”. The result for `COc1ccc(-c2cn3c4c(sc3n2)CCCC4)cc1` reads inactive: > 76.9 µM. `O=C(c1ccccc1F)N1CCN(c2ccccc2)CC1`: the Potency is inactive: > 76.9 µM. As to `c1ccc(CCN2CN=C(Nc3nc4ccccc4o3)NC2)cc1`, the Potency is inactive: > 76.9 µM.

Turning to `O=C(OCC(=O)c1ccco1)c1ccc2ncsc2c1`, the Potency was inactive: > 76.9 µM.

`CC1(C)CCCN(C(=O)c2coc(=O)c(Br)c2)C1`: the Potency was inactive: > 76.9 µM. Consider `CCOC(=O)c1oc2nc(C)c3c(c2c1N)CC(C)(C)OC3`, for which the Potency is inactive: > 76.9 µM. Under `COc1cc2c(cc1OC)C(c1cccs1)CC(=O)N2` (stereo unspecified) stands inactive: > 76.9 µM.

For the compound `CCn1cc(C(=O)Nc2ccccc2C(=O)OC)c(=O)c2ccc(C)nc21`, the Potency was inactive: > 76.9 µM.

The values above are taken from PubChem BioAssay AID360 (National Center for Advancing Translational Sciences (NCATS), 2006).
